Test system: growth arrest of stationary phase cells in G0/G1

CC(=O)N[C@@H](CS)C(=O)O [N-acetylcysteine]
G0/G1 arrest (Table 2 summary, stationary phase): ↓ | fraction of cells with visible buds (wild type cells, day 3 of medium depletion): dose-dependent increase

Source: patent publication US9034857B2 (Health Research, Inc., priority 2010, dated 2015)
